Source: the RNAGym collection of RNA variant scans (doi:10.1101/gad.245936.114)
Variants at the background level are over-represented here.

B1: tRNA (parent)
chain: CUCUCGGUAGCCAAGUUGGUUUAAGGCGCAAGACUUUAAUUUAUCACUACGAAAUCUUGAGAUCGGGCGUUCGACUCGCCCCCGGGAGAUUUUUUCCUCGAGCAA

Variants of: B1
Experiment: nonsense suppression (GFP-seq) (ratio to wild type); higher = more function; SUP4oc tRNA, yeast GFP reporter sort-seq
Procedure, shortened: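 Yeast carrying genome-integrated SUP4oc tRNA variants from a library with ~3% random mutations were grown in raffinose/galactose medium with 80 mg/L adenine. Each strain also carried a galactose-driven GFP ochre reporter and RFP. Cells were sorted into GFP/RFP bins, and each bin was Illumina-sequenced (phred ≥30). Nonsense suppression (GFPSEQ) is the bin median GFP/RFP, weighted by each variant's estimated cell share per bin, relative to wild-type SUP4oc; variants needed ≥100 reads and ≥30 cells.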

G7C U35A and G7C U35C cannot be ordered by nonsense suppression: ≤ 0.026 for the first, ≤ 0.026 for the second.

G7U C27U A54U C56A and U8C C77A cannot be ordered by nonsense suppression: ≤ 0.026 for the first, ≤ 0.026 for the second.

G7U G28A C34U and G7C A89C cannot be ordered by nonsense suppression: ≤ 0.026 for the first, ≤ 0.026 for the second.

U8C C12U U63C G78A and G7U U57C cannot be ordered by nonsense suppression: ≤ 0.026 for the first, ≤ 0.026 for the second.

G7U U76A and G7U C27U cannot be ordered by nonsense suppression: ≤ 0.026 for the first, ≤ 0.026 for the second.

G7U G15A U35C A54G and U8C A31U C34U G61A C79U cannot be ordered by nonsense suppression: ≤ 0.026 for the first, ≤ 0.026 for the second.

G7U U55A and U8A G10C cannot be ordered by nonsense suppression: ≤ 0.026 for the first, ≤ 0.026 for the second.

U8A C80G and U8A C80A cannot be ordered by nonsense suppression: ≤ 0.026 for the first, ≤ 0.026 for the second.

U8A C29U A33G U57G and U8C A31G G67A cannot be ordered by nonsense suppression: ≤ 0.026 for the first, ≤ 0.026 for the second.

U8A C82G C83A and G7C G18C G73A cannot be ordered by nonsense suppression: ≤ 0.026 for the first, ≤ 0.026 for the second.

U8C A9C A60G G69C U76C A89C and U8C C27G C29G G88U cannot be ordered by nonsense suppression: ≤ 0.026 for the first, ≤ 0.026 for the second.

U8A C27G G73A U76C G85U and U8C A13U C27G cannot be ordered by nonsense suppression: ≤ 0.026 for the first, ≤ 0.026 for the second.

U8A C12U G26U A33G G59A and G7U A9G U35A G78U cannot be ordered by nonsense suppression: ≤ 0.026 for the first, ≤ 0.026 for the second.

U8A C68G A74C and G7U G25C G67A cannot be ordered by nonsense suppression: ≤ 0.026 for the first, ≤ 0.026 for the second.

U8A C12U A24C G28C and G7C G10U U20G G25U G32U cannot be ordered by nonsense suppression: ≤ 0.026 for the first, ≤ 0.026 for the second.

U8A U17A G61A G85A and G7U A54U cannot be ordered by nonsense suppression: ≤ 0.026 for the first, ≤ 0.026 for the second.

G7C C77U G78A and G7C U71G C79U C83A cannot be ordered by nonsense suppression: ≤ 0.026 for the first, ≤ 0.026 for the second.

U8C A9U U35A and G7C A23G cannot be ordered by nonsense suppression: ≤ 0.026 for the first, ≤ 0.026 for the second.

G7C A33G G78A and G7U U21A cannot be ordered by nonsense suppression: ≤ 0.026 for the first, ≤ 0.026 for the second.

G7U A9U A87C and G7U A24U G66C cannot be ordered by nonsense suppression: ≤ 0.026 for the first, ≤ 0.026 for the second.

G7C G15C G26C G78C G88C and G7U U21A C29G A54C G65C cannot be ordered by nonsense suppression: ≤ 0.026 for the first, ≤ 0.026 for the second.

U8A G67A and G7U A14G G15U G18U C34A A60U C75U cannot be ordered by nonsense suppression: ≤ 0.026 for the first, ≤ 0.026 for the second.

G7U U17G and G7U A13U cannot be ordered by nonsense suppression: ≤ 0.026 for the first, ≤ 0.026 for the second.

U8C C68A and G7U C82G G88U cannot be ordered by nonsense suppression: ≤ 0.026 for the first, ≤ 0.026 for the second.

G7U G25A C27U C29U and G7C C29G cannot be ordered by nonsense suppression: ≤ 0.026 for the first, ≤ 0.026 for the second.

G7C C64G A74U and G7C G28A cannot be ordered by nonsense suppression: ≤ 0.026 for the first, ≤ 0.026 for the second.

U8A U17C U20G and G7C G15C U71C cannot be ordered by nonsense suppression: ≤ 0.026 for the first, ≤ 0.026 for the second.

G7U G26A G66A and U8C C11A U55A cannot be ordered by nonsense suppression: ≤ 0.026 for the first, ≤ 0.026 for the second.

G7C U16A U58C A60C C64A and U8A G15C G67A cannot be ordered by nonsense suppression: ≤ 0.026 for the first, ≤ 0.026 for the second.

G7U G86A and U8A A62U G65C A89U cannot be ordered by nonsense suppression: ≤ 0.026 for the first, ≤ 0.026 for the second.

G7C G73U and G7C A23C G32A cannot be ordered by nonsense suppression: ≤ 0.026 for the first, ≤ 0.026 for the second.

G7C U21A G59C G84U and G7C A14G U22A A24U G85C cannot be ordered by nonsense suppression: ≤ 0.026 for the first, ≤ 0.026 for the second.

G7U A13G C80A and G7C A31G G69U cannot be ordered by nonsense suppression: ≤ 0.026 for the first, ≤ 0.026 for the second.

Compared with G7C U55C, U8A U55G C81G is lower in nonsense suppression: 0.0823 for the first, ≤ 0.026 for the second.

U8A A14U A23G A30U and G7U G65C G66A cannot be ordered by nonsense suppression: ≤ 0.026 for the first, ≤ 0.026 for the second.

G7U A13U G32U and U8A G69C cannot be ordered by nonsense suppression: ≤ 0.026 for the first, ≤ 0.026 for the second.

U8A G69A and U8A G69U cannot be ordered by nonsense suppression: ≤ 0.026 for the first, ≤ 0.026 for the second.

G7C U17A A23C and U8C G15A C80U G86U cannot be ordered by nonsense suppression: ≤ 0.026 for the first, ≤ 0.026 for the second.

U8A U35G A54C A74G C83U G86A and G7C U8C G32C G66C C80A cannot be ordered by nonsense suppression: ≤ 0.026 for the first, ≤ 0.026 for the second.

U8A A89U and U8C A14U C75U cannot be ordered by nonsense suppression: ≤ 0.026 for the first, ≤ 0.026 for the second.

G7U U76G C81U and U8A A54U C56A C72A cannot be ordered by nonsense suppression: ≤ 0.026 for the first, ≤ 0.026 for the second.

G7U U8A U20G C83G and G7U G10A A62C cannot be ordered by nonsense suppression: ≤ 0.026 for the first, ≤ 0.026 for the second.

G7U A74U G85A and U8C C11G G59A cannot be ordered by nonsense suppression: ≤ 0.026 for the first, ≤ 0.026 for the second.

U8A U21A A23C C81U and U8C C27G C68G cannot be ordered by nonsense suppression: ≤ 0.026 for the first, ≤ 0.026 for the second.

U8A A62U and U8A A62C cannot be ordered by nonsense suppression: ≤ 0.026 for the first, ≤ 0.026 for the second.

G7C U70G G84U and G7C G18C G61C cannot be ordered by nonsense suppression: ≤ 0.026 for the first, ≤ 0.026 for the second.

G7U U35C G59U and U8A A54U U76C A87C cannot be ordered by nonsense suppression: ≤ 0.026 for the first, ≤ 0.026 for the second.

G7U C27U G84C and G7C A9U U17G C77U G88C cannot be ordered by nonsense suppression: ≤ 0.026 for the first, ≤ 0.026 for the second.

G7C A24C G86A and G7U A14G U21C C29G C79A cannot be ordered by nonsense suppression: ≤ 0.026 for the first, ≤ 0.026 for the second.

G7U A33G G84A and U8A U17G cannot be ordered by nonsense suppression: ≤ 0.026 for the first, ≤ 0.026 for the second.

Going from G7C A60U G61A C82G to G7C A54C C82A C83U, the nonsense suppression falls from 0.0263 to ≤ 0.026.

U8A C27U C34G C56A G85C and G7C G15C C29A U63C cannot be ordered by nonsense suppression: ≤ 0.026 for the first, ≤ 0.026 for the second.

G7C C72G and U8C G10C C64U G65A cannot be ordered by nonsense suppression: ≤ 0.026 for the first, ≤ 0.026 for the second.

U8A G10A G18A G66A and G7U U21C U22G G69A cannot be ordered by nonsense suppression: ≤ 0.026 for the first, ≤ 0.026 for the second.

G7U G65C A89C and G7U A87C cannot be ordered by nonsense suppression: ≤ 0.026 for the first, ≤ 0.026 for the second.

U8A A54U and G7C U17C C27U C64G cannot be ordered by nonsense suppression: ≤ 0.026 for the first, ≤ 0.026 for the second.

U8A U16C A23U C82A and U8A A60C G73U A87C cannot be ordered by nonsense suppression: ≤ 0.026 for the first, ≤ 0.026 for the second.

G7C U8C G61A G65A C82A G84A and G7U A9U cannot be ordered by nonsense suppression: ≤ 0.026 for the first, ≤ 0.026 for the second.

U8A A9G C27A C79G G86A and U8A G26C A31U U55A U71A cannot be ordered by nonsense suppression: ≤ 0.026 for the first, ≤ 0.026 for the second.

U8A G67U C79G and G7C G26A A89G cannot be ordered by nonsense suppression: ≤ 0.026 for the first, ≤ 0.026 for the second.

U8C C11G U35A and G7U A24C G69A C72U cannot be ordered by nonsense suppression: ≤ 0.026 for the first, ≤ 0.026 for the second.

G7U G84C and G7U G84A cannot be ordered by nonsense suppression: ≤ 0.026 for the first, ≤ 0.026 for the second.

U8C C11A U17G and G7C C11U U20A cannot be ordered by nonsense suppression: ≤ 0.026 for the first, ≤ 0.026 for the second.

G7U U57G A60U A62G and U8A G25A cannot be ordered by nonsense suppression: ≤ 0.026 for the first, ≤ 0.026 for the second.

G7U U35C A89G and G7U U57G U71C cannot be ordered by nonsense suppression: ≤ 0.026 for the first, ≤ 0.026 for the second.

G7U G19U G28U G65A and G7U G32U U55A U63A cannot be ordered by nonsense suppression: ≤ 0.026 for the first, ≤ 0.026 for the second.

U8C C72G and U8A C72U U76G cannot be ordered by nonsense suppression: ≤ 0.026 for the first, ≤ 0.026 for the second.

G7U U58G C80G and G7C G19C G66U G69C cannot be ordered by nonsense suppression: ≤ 0.026 for the first, ≤ 0.026 for the second.

G7C G86C A87C and G7C A60U cannot be ordered by nonsense suppression: ≤ 0.026 for the first, ≤ 0.026 for the second.

G7U G25U and U8A A87C cannot be ordered by nonsense suppression: ≤ 0.026 for the first, ≤ 0.026 for the second.

U8A U17A G61A A74G G85A and G7C A13G C27U G61C cannot be ordered by nonsense suppression: ≤ 0.026 for the first, ≤ 0.026 for the second.

G7U A13U G19A G66U and U8A A74G C80G cannot be ordered by nonsense suppression: ≤ 0.026 for the first, ≤ 0.026 for the second.

U8C G10A U58A and G7U G10A A23C G26U A60G G86C cannot be ordered by nonsense suppression: ≤ 0.026 for the first, ≤ 0.026 for the second.

G7U U63A G88U and U8C C11G A23U G69C cannot be ordered by nonsense suppression: ≤ 0.026 for the first, ≤ 0.026 for the second.

U8A A30G A33G and G7C G10U G18A cannot be ordered by nonsense suppression: ≤ 0.026 for the first, ≤ 0.026 for the second.

G7C A13U G26U C77G and G7C A13U G26U C77U cannot be ordered by nonsense suppression: ≤ 0.026 for the first, ≤ 0.026 for the second.

U8A A14G U70A and U8A G32U cannot be ordered by nonsense suppression: ≤ 0.026 for the first, ≤ 0.026 for the second.

U8A G32A and U8C A60C A87G cannot be ordered by nonsense suppression: ≤ 0.026 for the first, ≤ 0.026 for the second.

G7U G18C A33G and U8A A24C G25U G61U C79U G85C cannot be ordered by nonsense suppression: ≤ 0.026 for the first, ≤ 0.026 for the second.

G7U U57C G65A and G7U U21A G78A C79A cannot be ordered by nonsense suppression: ≤ 0.026 for the first, ≤ 0.026 for the second.

U8A G32C G61C A62C U63A G78A and G7C G15U G32A C82A cannot be ordered by nonsense suppression: ≤ 0.026 for the first, ≤ 0.026 for the second.

U8C C82U and G7U C11G A30G A62C G67A cannot be ordered by nonsense suppression: ≤ 0.026 for the first, ≤ 0.026 for the second.

G7U A9G G15U A23U C34G G59U G67A C68U G85U and G7C A62G G88C cannot be ordered by nonsense suppression: ≤ 0.026 for the first, ≤ 0.026 for the second.

With G7C U76C A89C the nonsense suppression was ≤ 0.026.
